Laboratory results: the supplement of paper PMC10441789
The other results are listed elsewhere or left out. Antibody binding of pooled human sera (four to six donors per pool; dilution not stated) to peptides of the Trypanosoma cruzi antigen TSSA on microarrays. Quantile-normalised fluorescence in arbitrary units, mean of duplicate arrays; higher = more binding. No active / inactive call. The uninfected pools are read here as the healthy donors of the same country. The strongest signals lie near the top of the scale (about 60,000).

Columns and labels:
Assay in all cases: antibody binding signal (normalised fluorescence) (arbitrary fluorescence units); higher = stronger serum antibody binding to peptide
[1] = test system: pooled sera of chronic Chagas disease patients, Argentina
Protocol: (§1)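 Microarray of 15-residue peptides over residues 30-55 of Trypanosoma cruzi TSSAII, each with 1 to 10 substitutions at naturally variable positions, probed with one serum pool per country.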

[2] = test system: pooled sera of chronic Chagas disease patients, Bolivia
Protocol: as §1

[3] = test system: pooled sera of chronic Chagas disease patients, Brazil
Protocol: as §1

[4] = test system: pooled sera of chronic Chagas disease patients, Colombia
Protocol: as §1

[5] = test system: pooled sera of chronic Chagas disease patients, Mexico
Protocol: as §1

[6] = test system: pooled sera of chronic Chagas disease patients, USA
Protocol: as §1

[7] = test system: pooled sera of uninfected people, Argentina
Protocol: as §1

[8] = test system: pooled sera of uninfected people, Bolivia
Protocol: as §1

[9] = test system: pooled sera of uninfected people, Brazil
Protocol: as §1

[10] = test system: pooled sera of uninfected people, Colombia
Protocol: as §1

[11] = test system: pooled sera of uninfected people, Mexico
Protocol: as §1

[12] = test system: pooled sera of uninfected people, USA
Protocol: as §1

| Sequence | antibody binding signal [1] | antibody binding signal [2] | antibody binding signal [3] | antibody binding signal [4] | antibody binding signal [5] | antibody binding signal [6] | antibody binding signal [7] | antibody binding signal [8] | antibody binding signal [9] | antibody binding signal [10] | antibody binding signal [11] | antibody binding signal [12] |
| --- | --- | --- | --- | --- | --- | --- | --- | --- | --- | --- | --- | --- |
| PPSGKDKKTAAGGAP | 932 | 393 | 646 | 4530 | 25900 | 1570 | 215 | 456 | 114 | 270 | 120 | 196 |
| PPSGTEKKAAAGETP | 26800 | 11200 | 15500 | 705 | 1480 | 3290 | 855 | 435 | 278 | 532 | 231 | 214 |
| DKKAATGEAPSQSGA | 20000 | 17900 | 31100 | 190 | 402 | 24500 | 638 | 85.8 | 163 | 805 | 149 | 240 |
| SGTEKKAATGGTPSQ | 2170 | 811 | 1560 | 1110 | 1400 | 1970 | 283 | 601 | 719 | 1330 | 171 | 203 |
| KKPATGGTPSPSGAS | 372 | 811 | 353 | 971 | 309 | 271 | 313 | 550 | 277 | 143 | 128 | 316 |
| TSSTPPSGKENKAAT | 14900 | 4110 | 9040 | 1410 | 3600 | 2290 | 3080 | 1080 | 145 | 742 | 150 | 365 |
| PPSGKEKKTATGGAP | 2570 | 375 | 1480 | 1460 | 3070 | 2920 | 421 | 336 | 110 | 196 | 130 | 204 |
| DKKPATGGAPSPPGA | 1400 | 942 | 1200 | 2580 | 997 | 2480 | 447 | 996 | 159 | 159 | 153 | 156 |
| PPSGTENKTATGETP | 49100 | 41000 | 46600 | 285 | 4140 | 13700 | 1540 | 360 | 280 | 286 | 228 | 465 |
| SGTDKKTAAGEAPSQ | 286 | 10100 | 8770 | 2470 | 323 | 6870 | 180 | 227 | 319 | 579 | 245 | 113 |
| GTDKKTATGEAPSPS | 10500 | 19100 | 10900 | 1230 | 433 | 20400 | 201 | 182 | 277 | 96.6 | 210 | 120 |
| GTDKKTATGGTPSQS | 458 | 566 | 431 | 3450 | 575 | 1380 | 366 | 192 | 249 | 477 | 295 | 109 |
| TPPSGKEKKTATGET | 7440 | 363 | 1570 | 1580 | 6940 | 1250 | 356 | 691 | 119 | 384 | 198 | 146 |
| KDKKTATGGAPSQPG | 553 | 244 | 469 | 664 | 494 | 283 | 240 | 98.9 | 102 | 75.4 | 96.5 | 111 |
| TEKKAAAGETPSQSG | 719 | 484 | 2430 | 436 | 447 | 2590 | 111 | 273 | 346 | 719 | 454 | 214 |
| DNKTAAGEAPSPPGA | 366 | 360 | 4320 | 310 | 296 | 6780 | 125 | 278 | 235 | 223 | 212 | 151 |
| TPPSGKENKPAAGET | 16600 | 35300 | 10800 | 428 | 4520 | 13700 | 2980 | 2650 | 298 | 993 | 337 | 504 |
| GTENKTAAGGTPSQP | 39000 | 1150 | 740 | 5780 | 825 | 1720 | 449 | 365 | 781 | 301 | 2830 | 161 |
| GTDKKPAAGETPSPP | 388 | 1380 | 9350 | 6830 | 597 | 2210 | 134 | 355 | 163 | 208 | 538 | 349 |
| NKTATGEAPSPPGAS | 5320 | 29900 | 19500 | 355 | 291 | 17900 | 524 | 1060 | 634 | 579 | 137 | 1220 |
| GKENKAAAGETPSQS | 6150 | 683 | 16500 | 11700 | 9570 | 20400 | 388 | 159 | 163 | 113 | 128 | 98 |
| PPSGKENKAAAGGAP | 5620 | 903 | 5460 | 2780 | 4400 | 3800 | 3110 | 1390 | 134 | 616 | 173 | 286 |
| GKDNKTAAGETPSQS | 3080 | 908 | 2110 | 7490 | 5990 | 3720 | 286 | 311 | 130 | 233 | 160 | 154 |

| Sequence | antibody binding signal [1] | antibody binding signal [2] | antibody binding signal [3] | antibody binding signal [4] | antibody binding signal [5] | antibody binding signal [6] | antibody binding signal [7] | antibody binding signal [8] | antibody binding signal [9] | antibody binding signal [10] | antibody binding signal [11] | antibody binding signal [12] |
| --- | --- | --- | --- | --- | --- | --- | --- | --- | --- | --- | --- | --- |
| GTENKPAAGETPSQP | 43800 | 6550 | 39100 | 517 | 1310 | 4740 | 285 | 1260 | 286 | 198 | 188 | 115 |
| PSGKENKAATGGTPS | 5230 | 1130 | 8920 | 7530 | 8480 | 7100 | 5600 | 1710 | 186 | 430 | 312 | 211 |
| KDKKPATGGTPSQPG | 478 | 240 | 687 | 655 | 187 | 508 | 288 | 94.1 | 227 | 119 | 169 | 87.3 |
| KENKTAAGETPSPSG | 200 | 236 | 338 | 688 | 224 | 2150 | 234 | 197 | 126 | 149 | 211 | 1680 |
| GKDNKTATGEAPSPP | 14700 | 21500 | 16900 | 4980 | 1770 | 20600 | 279 | 213 | 179 | 314 | 96.2 | 122 |
| EKKTATGETPSQPGA | 1190 | 1310 | 30500 | 443 | 427 | 6920 | 372 | 1370 | 238 | 195 | 436 | 806 |
| NKAAAGEAPSQSGAS | 636 | 21200 | 29100 | 203 | 234 | 10800 | 373 | 1020 | 305 | 221 | 388 | 800 |
| TSSTPPSGTDKKTAA | 33700 | 4280 | 34000 | 5310 | 40700 | 5840 | 1280 | 226 | 159 | 157 | 596 | 322 |
| PSGKDKKTATGGAPS | 2560 | 369 | 1920 | 3890 | 3250 | 3520 | 219 | 226 | 98.3 | 106 | 104 | 104 |
| TISTPPSGTDNKPAT | 42200 | 43200 | 47600 | 5010 | 10700 | 27000 | 1330 | 720 | 524 | 297 | 1010 | 524 |
| TPPSGTDNKAATGET | 37500 | 31300 | 43100 | 885 | 7510 | 9130 | 467 | 502 | 560 | 255 | 211 | 147 |
| SGTEKKPAAGETPSQ | 2700 | 1200 | 8260 | 1270 | 1290 | 2380 | 79.2 | 934 | 718 | 793 | 261 | 444 |
| PPSGKDKKPAAGETP | 1360 | 1310 | 1210 | 1080 | 45200 | 1790 | 388 | 339 | 132 | 356 | 84.2 | 116 |
| SGKDNKAAAGGTPSP | 531 | 239 | 949 | 2430 | 1000 | 1700 | 140 | 187 | 414 | 531 | 83.2 | 107 |
| GKDKKTATGGAPSPS | 611 | 188 | 313 | 1200 | 745 | 777 | 193 | 96.2 | 106 | 92.3 | 90.6 | 107 |
| KENKTAAGGTPSPPG | 406 | 202 | 176 | 2530 | 201 | 1270 | 186 | 104 | 247 | 128 | 179 | 123 |
| GTDNKPAAGEAPSPS | 3790 | 2940 | 41400 | 1130 | 222 | 16900 | 145 | 559 | 315 | 109 | 340 | 111 |
| TEKKAAAGGTPSPPG | 1250 | 169 | 250 | 8300 | 843 | 2700 | 158 | 116 | 1760 | 228 | 187 | 309 |
| GTDNKAAAGGAPSQP | 404 | 1950 | 29800 | 2690 | 378 | 316 | 184 | 643 | 1510 | 252 | 225 | 194 |
| PPSGKDKKAATGGAP | 1440 | 264 | 578 | 835 | 31100 | 1230 | 254 | 379 | 89.4 | 355 | 82.9 | 158 |
| KKTATGETPSQSGAS | 511 | 841 | 3300 | 248 | 262 | 5000 | 392 | 311 | 129 | 120 | 284 | 512 |
| PPSGTDNKPATGGAP | 29800 | 43300 | 51900 | 3350 | 4080 | 14500 | 1790 | 1650 | 938 | 947 | 1740 | 1170 |
| KENKPAAGGAPSQSG | 170 | 209 | 2200 | 675 | 349 | 285 | 189 | 148 | 138 | 93.3 | 88.3 | 120 |
